Some entries share one result that the patent states for a list of compounds. The name of at least one read-out is uncertain.
Test system: IL-6 production in LPS-stimulated murine splenocytes
Assay: Inhibition of IL-6 production in LPS-stimulated murine splenocytes in vitro
Type: cell-based, mouse
Conditions: 50 μM or/and 25 μM concentration of the compound

Question: Which “inhibition of interleukin-6 (IL-6) production in LPS-stimulated splenocytes” value (“inhibition” for short) does the source give for `CC[C@H]1OC(=O)[C@H](C)[C@@H](O[C@H]2C[C@@](C)(OC)[C@@H](O)[C@H](C)O2)[C@H](C)[C@@H](O[C@@H]2O[C@H](C)C[C@H]3[C@H]2OC(=NC(C)C)N3C)[C@](C)(OC)C[C@@H](C)[C@H](O)[C@H](C)[C@@H](O)[C@]1(C)O` (single isomer, unassigned) [Example 29] here?
Answer: more than 80%

Question: How did the “inhibition” value turn out when `CC[C@H]1OC(=O)[C@H](C)[C@@H](O[C@H]2C[C@@](C)(OC)C(O)[C@H](C)O2)[C@H](C)[C@@H](O[C@@H]2O[C@H](C)C[C@H]3[C@H]2OC(=NC(C)C)N3C)[C@](C)(O)C[C@@H](C)CN[C@H](C)[C@@H](O)[C@]1(C)O` (single isomer, unassigned) [Example 37, 2′-O,3′-N-(Carbonimidoyl)-3′-N-demethyl-N′-isopropyl-9-deoxo-9a-aza-9a-homoerythromycin A] was run?
Answer: more than 80%

Question: For `CC[C@H]1OC(=O)[C@H](C)[C@@H](O[C@H]2C[C@@](C)(OC)[C@@H](O)[C@H](C)O2)[C@H](C)[C@@H](O[C@@H]2O[C@H](C)C[C@H]3[C@H]2OC(=NCCN2CCOCC2)N3C)[C@](C)(O)C[C@@H](C)CN(C)[C@H](C)[C@@H](O)[C@]1(C)O` (single isomer, unassigned) [Example 47, 2′-O,3′-N-(Carbonimidoyl)-3′-N-demethyl-9a-methyl-N′-[2-(4-morpholinyl)ethyl]-9a-aza-9a-homoerythromycin A], which “inhibition” value is on record?
Answer: more than 60%

Question: For `CC[C@H]1OC(=O)[C@H](C)[C@@H](O[C@H]2C[C@@](C)(OC)[C@@H](O)[C@H](C)O2)[C@H](C)[C@@H](O[C@@H]2O[C@H](C)C[C@H]3[C@H]2OC(=Nc2c(F)cccc2F)N3C)[C@](C)(OC)C[C@@H](C)C(=O)N[C@H](C)[C@@H](O)[C@]1(C)O` (single isomer, unassigned) [Example 17, 2′-O,3′-N-(Carbonimidoyl)-3′-N-demethyl-N′-(2,6-difluorophenyl)-6-O-methyl-9a-aza-9a-homoerythromycin A], which “inhibition” value is on record?
Answer: more than 80%

Question: `CC[C@H]1OC(=O)[C@H](C)[C@@H](O[C@H]2C[C@@](C)(OC)[C@@H](O)[C@H](C)O2)[C@H](C)[C@@H](O[C@@H]2O[C@H](C)C[C@H]3[C@H]2OC(=NC(C)(C)C)N3C)[C@](C)(OC)C[C@@H](C)C(=O)N[C@H](C)[C@@H](O)[C@]1(C)O` (single isomer, unassigned) [Example 18, 2′-O,3′-N-(Carbonimidoyl)-3′-N-demethyl-6-O-methyl-N′-(tert-butyl)-9a-aza-9a-homoerythromycin A] was tested. Which “inhibition” value did it give?
Answer: more than 80%

Question: `CC[C@H]1OC(=O)[C@H](C)[C@@H](O[C@H]2C[C@@](C)(OC)[C@@H](O)[C@H](C)O2)[C@H](C)[C@@H](O[C@@H]2O[C@H](C)C[C@H]3[C@H]2OC(=NC)N3C)[C@](C)(O)C[C@@H](C)CN(C)[C@H](C)[C@@H](O)[C@]1(C)O` (single isomer, unassigned) [Example 41, 2′-O,3′-N-(Carbonimidoyl)-3′-N-demethyl-N′-methyl-9-deoxo-9a-methyl-9a-aza-9a-homoerythromycin A] was tested. Which “inhibition” value did it give?
Answer: more than 80%

Question: Which “inhibition” value does the source give for `CC[C@H]1OC(=O)[C@H](C)[C@@H](O[C@H]2C[C@@](C)(OC)[C@@H](O)[C@H](C)O2)[C@H](C)[C@@H](O[C@@H]2O[C@H](C)C[C@H]3[C@H]2OC(=Nc2ccc(OC)cc2)N3C)[C@](C)(O)C[C@@H](C)CN(C)[C@H](C)[C@@H](O)[C@]1(C)O` (single isomer, unassigned) [Example 44, 2′-O,3′-N-(Carbonimidoyl)-3′-N-demethyl-N′-[4-(metoxy)phenyl]-9a-methyl-9a-aza-9a-homoerythromycin A] here?
Answer: more than 80%

Question: `CCN=C1O[C@H]2[C@H](O[C@@H]3[C@@H](C)[C@H](O[C@H]4C[C@@](C)(OC)[C@@H](O)[C@H](C)O4)[C@@H](C)C(=O)O[C@H](CC)[C@@](C)(O)[C@H](O)[C@@H](C)[C@@H](O)[C@H](C)C[C@@]3(C)OC)O[C@H](C)C[C@@H]2N1C` (single isomer, unassigned) [Example 28] was tested. Which “inhibition” value did it give?
Answer: more than 80%

Question: For `CC[C@H]1OC(=O)[C@H](C)[C@@H](O[C@H]2C[C@@](C)(OC)[C@@H](O)[C@H](C)O2)[C@H](C)[C@@H](O[C@@H]2O[C@H](C)C[C@H]3[C@H]2OC(=NCc2ccccc2)N3C)[C@](C)(O)C[C@@H](C)[C@H](O)[C@H](C)[C@@H](O)[C@]1(C)O` (single isomer, unassigned) [Example 27], which “inhibition” value is on record?
Answer: more than 80%

Question: With `CC[C@H]1OC(=O)[C@H](C)[C@@H](O[C@H]2C[C@@](C)(OC)[C@@H](O)[C@H](C)O2)[C@H](C)[C@@H](O[C@@H]2O[C@H](C)C[C@H]3[C@H]2OC(=NCc2ccccc2)N3C)[C@](C)(O)C[C@@H](C)C(=O)[C@H](C)[C@@H](O)[C@]1(C)O` (single isomer, unassigned) [Example 33, N′-Benzyl-2′-O,3′-N-(carbonimidoyl)-3′-N-demethyl-erythromycin A] as the compound, how does the “inhibition” value read?
Answer: more than 80%

Question: With `CC[C@H]1OC(=O)[C@H](C)[C@@H](O[C@H]2C[C@@](C)(OC)[C@@H](O)[C@H](C)O2)[C@H](C)[C@@H](O[C@@H]2O[C@H](C)C[C@H]3[C@H]2OC(=NCCN2CCOCC2)N3C)[C@](C)(OC)C[C@@H](C)C(=O)N[C@H](C)[C@@H](O)[C@]1(C)O` (single isomer, unassigned) [Example 20, 2′-O,3′-N-(Carbonimidoyl)-3′-N-demethyl-6-O-methyl-N′-[2-(4-morpholinyl)ethyl]-9a-aza-9a-homoerythromycin A] as the compound, how does the “inhibition” value read?
Answer: more than 80%

Question: How did the “inhibition” value turn out when `CC[C@H]1OC(=O)[C@H](C)[C@@H](O[C@H]2C[C@@](C)(OC)[C@@H](O)[C@H](C)O2)[C@H](C)[C@@H](O[C@@H]2O[C@H](C)C[C@H]3[C@H]2OC(=NC(C)C)N3C)[C@](C)(OC)C[C@@H](C)NC(=O)[C@H](C)[C@@H](O)[C@]1(C)O` (single isomer, unassigned) [Example 34, 2′-O,3′-N-(Carbonimidoyl)-3′-N-demethyl-N′-isopropyl-6-O-methyl-8a-aza-8a-homoerythromycin A] was run?
Answer: more than 60%

Question: `CCCN1C[C@H](C)C[C@@](C)(O)[C@H](O[C@@H]2O[C@H](C)C[C@H]3[C@H]2OC(=NCc2ccccc2)N3C)[C@@H](C)[C@H](O[C@H]2C[C@@](C)(OC)[C@@H](O)[C@H](C)O2)[C@@H](C)C(=O)O[C@H](CC)[C@@](C)(O)[C@H](O)[C@H]1C` [Example 48, N′-Benzyl-2′-O,3′-N-(carbonimidoyl)-3′-N-demethyl-9-deoxo-9a-aza-9a-propyl-9a-homoerythromycin A] was tested. Which “inhibition” value did it give?
Answer: more than 80%

Question: Which “inhibition” value does the source give for `CC[C@H]1OC(=O)[C@H](C)[C@@H](O[C@H]2C[C@@](C)(OC)[C@@H](O)[C@H](C)O2)[C@H](C)[C@@H](O[C@@H]2O[C@H](C)C[C@H]3[C@H]2OC(=NCc2ccccc2)N3C)[C@](C)(O)C[C@@H](C)CN(C)[C@H](C)[C@@H](O)[C@]1(C)O` (single isomer, unassigned) [Example 1, N′-Benzyl-2′-O,3′-N-(carbonimidoyl)-3′-N-demethyl-9-deoxo-9a-methyl-9a-aza-9a-homoerythromycin A] here?
Answer: more than 80%

Question: `CC[C@H]1OC(=O)[C@H](C)[C@@H](O[C@H]2C[C@@](C)(OC)[C@@H](O)[C@H](C)O2)[C@H](C)[C@@H](O[C@@H]2O[C@H](C)C[C@H]3[C@H]2OC(=NCCCSC)N3C)[C@](C)(O)C[C@@H](C)CN(C)[C@H](C)[C@@H](O)[C@]1(C)O` (single isomer, unassigned) [Example 43, 2′-O,3′-N-(Carbonimidoyl)-3′-N-demethyl-N′-[3-(methylthio)propyl]-9a-methyl-9a-aza-9a-homoerythromycin A] was tested. Which “inhibition” value did it give?
Answer: more than 80%

Question: How did the “inhibition” value turn out when `CC[C@H]1OC(=O)[C@H](C)[C@@H](O[C@H]2C[C@@](C)(OC)[C@@H](O)[C@H](C)O2)[C@H](C)[C@@H](O[C@@H]2O[C@H](C)C[C@H]3[C@H]2OC(=NCCCN(CC)CC)N3C)[C@](C)(OC)C[C@@H](C)C(=O)N[C@H](C)[C@@H](O)[C@]1(C)O` (single isomer, unassigned) [Example 8, 2′-O,3′-N-(Carbonimidoyl)-3′-N-demethyl-N′-[3-(diethylamino)propyl]-6-O-methyl-9a-aza-9a-homoerythromycin A] was run?
Answer: more than 40%

Question: With `CC[C@H]1OC(=O)[C@H](C)[C@@H](O[C@H]2C[C@@](C)(OC)[C@@H](O)[C@H](C)O2)[C@H](C)[C@@H](O[C@@H]2O[C@H](C)C[C@H]3[C@H]2OC(=Nc2cccc4ccccc24)N3C)[C@](C)(O)C[C@@H](C)CN(C)[C@H](C)[C@@H](O)[C@]1(C)O` (single isomer, unassigned) [Example 2, 2′-O,3′-N-(Carbonimidoyl)-3′-N-demethyl-9-deoxo-9a-methyl-N′-(1-naphthyl)-9a-aza-9a-homoerythromycin A] as the compound, how does the “inhibition” value read?
Answer: more than 80%

Question: How did the “inhibition” value turn out when `CC[C@H]1OC(=O)[C@H](C)[C@@H](O[C@H]2C[C@@](C)(OC)[C@@H](O)[C@H](C)O2)[C@H](C)[C@@H](O[C@@H]2O[C@H](C)C[C@H]3[C@H]2OC(=NC(C)C)N3C)[C@](C)(O)C[C@@H](C)[C@H](O)[C@H](C)[C@@H](O)[C@]1(C)O` (single isomer, unassigned) [Example 26] was run?
Answer: more than 80%

Question: How did the “inhibition” value turn out when `CC[C@H]1OC(=O)[C@H](C)[C@@H](O[C@H]2C[C@@](C)(OC)[C@@H](O)[C@H](C)O2)[C@H](C)[C@@H](O[C@@H]2O[C@H](C)C[C@H]3[C@H]2OC(=NC(C)C)N3C)[C@](C)(O)C[C@@H](C)C(=O)[C@H](C)[C@@H](O)[C@]1(C)O` (single isomer, unassigned) [Example 31, 2′-O,3′-N-(Carbonimidoyl)-3′-N-demethyl-N′-isopropyl-erythromycin A] was run?
Answer: more than 80%
